# Test results from PubChem BioAssay AID651820 (National Center for Advancing Translational Sciences (NCATS), 2012).
# The whole screen tested about 340,000 compounds, of which about 12,000 (3.5%) were called active. The inconclusive results got no clear call from the source; some entries with a clear call stand among them for comparison. Calls come from the whole dose curve; as a rule, active = well fitted inhibition curve with a large enough effect; inconclusive = small, poorly fitted or top-dose-only effect, or another doubt; inactive = no such curve, though single readings can be large or run the other way. A potency beside an inconclusive call is a rough fit, not a confirmed value.
# Assay: qHTS Assay for Inhibitors of Hepatitis C Virus (HCV)
# Conditions: Huh7.5.1 HCVcc-Cre (HCVcc is cell-culture hepatitis C virus) infection, luciferase reporter, 44 h; activity change, negative = inhibition: at 41.8 µM (top of the series) unless noted
# Summary of the method: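 1,000 cells/well; 4 h culture; + compound; + HCVcc-Cre (~0.5 moi); 44 h; luciferase substrate, RT 15 min; read 15 sec.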
# % is set by controls: 0 for no effect and ±100 for the full control effect; potency is the fitted concentration of half-maximal effect; tags give direction and shape of the fitted curve.
SMILES,Potency,"activity change, negative = inhibition"
COc1cc(CNc2ccc(CNc3ncn[nH]3)cc2)cc(Cl)c1OCc1ccccc1,"inconclusive: 11.2 µM [inhibitor, partial curve]",
O=C(c1ccc(Cl)cc1)c1ccc(OCC(=O)N2CCOCC2)cc1,"inconclusive: 12.6 µM [inhibitor, single point]",
Cc1ccc2c(c1)C(=O)C(=O)N2CCCOc1ccccc1C,"inconclusive: 22.4 µM [inhibitor, single point]",
COC(=O)[C@@]12CCCCN1[C@H](c1ccc(-c3ccccc3)c(OC)c1)[C@H]1C(=O)N(C)C(=O)[C@H]12,,inactive: 12%
O=C(COC(=O)c1cc2ccccc2cc1O)NC(=O)NCc1ccco1,,inactive: 4.33%
CC(C)N1CCC(N2CCN(CCCc3ccccc3)CC2CCO)CC1 (configuration not stated),"inconclusive: 2.24 µM [inhibitor, full curve]",
O=C(N/N=C/C(Br)=C\c1ccccc1)c1ccco1,,inactive: -19.4%
CCCCCNC(=O)N[C@H](C(=O)O)C(C)C,,inconclusive: -35.6% [inhibitor] [at 0.335 µM]
CN(Cc1ccc(Cl)cc1)C(=O)CCl,"inconclusive: 31.6 µM [inhibitor, single point]",
CCn1c(N2CCN(Cc3ccc([N+](=O)[O-])cc3)CC2)nc2ccccc21,,inactive: -8.93%
CCOc1ccc(C(=O)NC2CCN(S(=O)(=O)c3ccccc3)CC2)cc1,"inconclusive: 31.6 µM [inhibitor, single point]",
Cc1cc(O)c2c(c1)CC1C3CCC4CC(=O)CCC4(C)C3CC(=O)C21C (configuration not stated),"inconclusive: 31.6 µM [inhibitor, single point]",
CN1CCN(S(=O)(=O)c2cccc(C(=O)Nc3cc(C(F)(F)F)ccc3N3CCCCC3)c2)CC1,"inconclusive: 1 µM [inhibitor, full curve, poor fit]",
O=C(C[n+]1cccc(NC(=O)c2ccccc2)c1)c1ccc(NC(=O)c2ccccc2)cc1,,inactive: -8.64%
COc1cccc(NC(=O)c2ccccc2OCc2c(C)noc2C)c1,"inconclusive: 3.55 µM [inhibitor, single point]",
Cc1nn(-c2ccccc2)c(C)c1/C=N/NC(=O)c1cc(-c2cccc3ccccc23)n[nH]1,"inconclusive: 25.1 µM [inhibitor, single point]",
Cc1ccc2c(CN3CCC(C(N)=O)CC3)cc(=O)oc2c1C,,inactive: 1.66%
CCc1c(C)nc2ncnn2c1N1CCCC(C(=O)NCc2cccs2)C1 (configuration not stated),"inconclusive: 5.62 µM [inhibitor, full curve, poor fit]",
COc1ccc(C2(O)CCN(CC(=O)Nc3nc(-c4ccccc4)cs3)CC2)cc1,"inconclusive: 31.6 µM [inhibitor, single point]",
CCC(NC(=S)NCc1ccc(F)cc1)c1ccc(C(C)C)cc1 (configuration not stated),"inconclusive: 22.4 µM [inhibitor, single point]",
CC(=O)N1CCN(c2ccc(Oc3nc(-c4ccccc4)nc4ccccc34)cc2)CC1,,inactive: -7.17%
CCCN(CC(=O)Nc1ccc(Cl)cc1Cl)Cc1cc(=O)n2ccsc2n1,"inconclusive: 5.62 µM [inhibitor, partial curve]",
CC(=O)c1ccc(Nc2ccc(-c3ccccc3F)nn2)cc1,,inactive: -17%

SMILES,Potency,"activity change, negative = inhibition"
Cc1ccc(-n2c(Cc3cccn3C)nnc2SCC(=O)Nc2nnc(C)s2)cc1,"inconclusive: 0.562 µM [inhibitor, full curve, poor fit]",
Cc1[nH]c2ccccc2c1CCCNC1CCCCC1,"inconclusive: 14.1 µM [inhibitor, single point]",
CSc1nnc2n(C)c3c(c(=O)n12)C1(CCCC1)Cc1ccccc1-3,"inconclusive: 3.55 µM [inhibitor, full curve, poor fit]",
Cc1ccc(S(=O)(=O)N(C)C)cc1NC(=O)c1ccc2ccccc2n1,"inconclusive: 11.2 µM [inhibitor, partial curve]",
COc1cc2sc3ccc(-c4ccc(CN5CCOCC5)cc4)cc3c(=O)c2cc1OC,,inactive: -20.1%
COc1ccc(S(=O)(=O)N2CCOCC2)cc1NC(=O)COC(=O)c1[nH]c(C)c(C(C)=O)c1C,"inconclusive: 10 µM [inhibitor, partial curve]",
O=C(Nc1ccccc1)c1ccc(NCCc2ccccc2)c([N+](=O)[O-])c1,"inconclusive: 5.62 µM [inhibitor, single point]",
CCCCn1c(=O)c(C(=O)NCCc2ccccc2)c(O)c2ccccc21,"inconclusive: 7.08 µM [inhibitor, partial curve]",
CC(C)C1CC(CCN)(c2ccccc2)CCO1 (configuration not stated),,inactive: 1.38%
Nc1ccc2c(c1)Cc1ccccc1-2,"inconclusive: 31.6 µM [inhibitor, single point]",
Cc1noc(C)c1COc1ccc(C(=O)NNC(=O)c2ccccc2O)cc1,,inactive: -4.17%
CCOC(=O)c1nc(NNC(=O)c2ccc([N+](=O)[O-])cc2)sc1C,"inconclusive: 14.1 µM [inhibitor, single point]",
Cc1cccc(C)c1NC(=S)NCCc1ccc(O)c(O)c1,"inconclusive: 31.6 µM [inhibitor, single point]",
COc1ccc(NC(=O)Nc2nc(C)cc(C)n2)c(OC)c1,"inconclusive: 11.2 µM [inhibitor, single point]",
Cc1ccc(S(=O)(=O)c2cn(C)c3cc(N4CCN(C)CC4)c(F)cc3c2=O)c(C)c1,active: 12.6 µM,
CCC(C)NC(=O)C1CCC(=O)N(c2cc(OC)c(OC)c(OC)c2)C1c1ccc(OC)cc1 (configuration not stated),inactive,
Cc1cc(Nc2nc3ccccc3nc2Cl)n(-c2ccccc2)n1,"inconclusive: 31.6 µM [inhibitor, single point]",
O=C(Nc1ncc(Cc2ccc(SC(F)F)cc2)s1)c1ccccc1,"inconclusive: 4.47 µM [inhibitor, partial curve]",
O=C(Nc1ccccc1Cl)N1CCCN(c2nc(-c3ccccc3)ns2)CC1,"inconclusive: 22.4 µM [inhibitor, single point]",
COc1ccc(OC)c(NC(=O)c2ccc(CSc3ncccn3)cc2)c1,"inconclusive: 31.6 µM [inhibitor, single point]",
CCCC(=O)NC(=S)Nc1ccc(NC(=O)c2cccs2)cc1,"inconclusive: 10 µM [inhibitor, partial curve]",
Cc1[nH]c2ccccc2c1C(=O)C(C)OC(=O)c1ccc([N+](=O)[O-])o1 (configuration not stated),"inconclusive: 11.2 µM [inhibitor, single point]",
CCOC(=O)C1=C(C)NC(SCC(N)=O)=C(C#N)C1c1ccccc1 (configuration not stated),"inconclusive: 1.41 µM [inhibitor, full curve]",

SMILES,Potency,"activity change, negative = inhibition"
CCCNC(=O)c1ccc(COc2ccc(C(C)(C)C)cc2)o1,active: 12.6 µM,
CCCc1nc2ccc(NC(=O)NCCC(=O)OCC)cc2c(=O)n1Cc1ccc(Cl)cc1,"inconclusive: 1.12 µM [inhibitor, full curve]",
Cc1noc(C)c1S(=O)(=O)N(C)C[C@H]1Oc2c(NS(=O)(=O)c3cn(C)cn3)cccc2C(=O)N([C@H](C)CO)C[C@@H]1C,"inconclusive: 14.1 µM [inhibitor, single point]",
CCn1c(Cc2ccccc2)nnc1SCC(=O)Nc1ccc(OC)cc1,"inconclusive: 11.2 µM [inhibitor, single point]",
COc1ccc(/C=C2\CCCC3C2=NN(C(=O)CSc2ncn[nH]2)C3c2ccc(OC)cc2)cc1 (configuration not stated),active: 12.6 µM,
CCCN1CCC(=NNc2ccc(S(=O)(=O)N(CC)CC)cc2[N+](=O)[O-])CC1,"inconclusive: 7.08 µM [inhibitor, partial curve]",
CCOc1ccc(N2C=Nc3ccc(OCC)cc3C2)cc1,"inconclusive: 31.6 µM [inhibitor, single point]",
Cc1cccc(C)c1N1C(=O)CC(N2CCN(S(=O)(=O)c3ccccc3F)CC2)C1=O (configuration not stated),,inactive: 5.1%
Cc1ccc(OCC(O)CN2CCN(c3ccccn3)CC2)c(C)c1 (configuration not stated),"inconclusive: 3.55 µM [inhibitor, single point]",
Oc1ccc(C2=Nn3c(nnc3-c3ccco3)SC2)cc1O,"inconclusive: 31.6 µM [inhibitor, single point]",
COc1ccc(CN(C)CC2CCCN(CCc3ccc(F)cc3)C2)c(OC)c1OC (configuration not stated),"inconclusive: 12.6 µM [inhibitor, partial curve]",
O=C(Nc1ccc(Cl)cc1)Nc1cccc2nsnc12,"inconclusive: 10 µM [inhibitor, partial curve]",
NC(=O)CC(NC(=O)Cc1ccc(Br)cc1)c1ccc(NCc2cc(F)ccc2F)c([N+](=O)[O-])c1 (configuration not stated),"inconclusive: 2.24 µM [inhibitor, partial curve]",
O=C(COc1ccc2cc(Br)ccc2c1)N1CCOCC1,"inconclusive: 31.6 µM [inhibitor, single point]",
Cc1ccc(OC(F)F)c(NC(=O)Nc2cccc(C(F)(F)F)c2)c1,active: 10 µM,
Cc1ccc(-n2nc3ccc(NC(=O)c4ccco4)cc3n2)cc1,"inconclusive: 11.2 µM [inhibitor, partial curve]",
O=C(NCCCN1CCCC1)c1ccc(CSCc2cccc(Cl)c2)o1,active: 10 µM,
N#C/C(=C\c1ccc(O)c(O)c1)C(=O)NCCc1ccccc1,"inconclusive: 3.55 µM [inhibitor, partial curve]",
COc1ccc(C(=O)c2ccc(N(C)C)cc2)c2ccccc12,"inconclusive: 7.08 µM [inhibitor, partial curve]",
COc1cccc(OCCn2cc(C(C)=O)c3ccccc32)c1,"inconclusive: 3.98 µM [inhibitor, partial curve]",
COc1ccc2cc3c(N)nn(C(=O)Cc4ccc(Cl)cc4)c3nc2c1,,inactive: -2.45%
